In PubChem BioAssay AID662 (National Center for Advancing Translational Sciences (NCATS), 2007):
Out of some 71,000 compounds screened, about 1,800 (2.5%) were called active. The shares of active, inactive and inconclusive entries below differ from those in the screen. The call rests on the fitted dose curve; in most records, active means well fitted activation curve with a large enough effect in the signal ratio, with a control signal flat (not every such curve was filed as active); inconclusive means small, poorly fitted or top-dose-only effect, or effect the other way, or a change in a side signal; inactive means flat fitted curve, though single readings scatter; the % refers to the signal ratio. Where the call is inconclusive, the potency comes from a doubtful curve fit.

Assay: Cell signaling CRE-BLA (Fsk stim); on activity change, negative = inhibition: % of control where 0% means no effect
Settings: CHO CRE-bla reporter (cAMP response element driving beta-lactamase), forskolin EC10, beta-lactamase ratio; activity change, negative = inhibition: at 38.2 µM (top of the series) unless noted
Outline: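 Titrated compounds plus EC10 NKH 477 on CHO CRE-bla cells, 3 h, 37 °C. CCF4, 2 h RT. Ratio 460/530 nm → AC50.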
Potency means the concentration at half of the fitted maximal effect; tags describe the fitted curve by direction and shape.

Row | SMILES | activity change, negative = inhibition | Potency
1 | CCN(CCCNC(=O)C1CCN(S(=O)(=O)CC)CC1)c1cccc(C)c1 | inconclusive: -9.4% | 
2 | CC(NC(=O)Nc1ccccc1O)(C(F)(F)F)C(F)(F)F | inconclusive: 3.67% | 
3 | COc1ccc(-n2ncc3c(N4CCCc5ccccc54)ncnc32)cc1 |  | inconclusive: 10 µM [rising, partial curve]
4 | O=C(NCCc1ccccc1)C1CC(c2ccccc2O)=NO1 (stereo unspecified) | inconclusive: -14.7% | 
5 | Cc1c(NC(=O)CN2C(=O)c3cccc4cccc2c34)c(=O)n(-c2ccccc2)n1C | inactive | 
6 | COc1cccc(-c2cc(C(=O)NCc3ccc(Cl)cc3)no2)c1 | inconclusive: -13.8% | 
7 | CCOc1ccccc1NC(=O)c1ccc2nccnc2c1 | inconclusive: 20.4% | 
8 | COc1cc2c3c(c1)/C(=C1/SC(NC(C)=O)=NC1=O)C(=O)N3C(C)(C)C=C2C |  | inconclusive: 10 µM [rising, partial curve]
9 | Cc1nn(Cc2ccccc2)c(Cl)c1C(=O)OC1CCOC1=O (stereo unspecified) | inconclusive: 11.6% | 
10 | COC(=O)c1cc(OC)c(OC)cc1NC(=O)c1cnccn1 |  | inconclusive: 20 µM [rising, single point]
11 | Cc1cncn1CCc1nc2c3ccccc3nc(=S)n2[nH]1 | inconclusive: -3.48% | 
12 | Cc1cc(Cc2cc(C)cc(C(C)(C)C)c2O)c(O)c(Cc2cc(C)cc(C(C)(C)C)c2O)c1 | inactive: 14.6% [at 7.6 µM] | 
13 | CCOC(=O)C1CCN(C(=O)CNS(=O)(=O)c2ccc(Br)s2)CC1 | inconclusive: 4.54% | 
14 | CC(=O)ON(C(C)=O)S(=O)(=O)c1ccc(Cl)cc1 | inconclusive: -17.3% | 
15 | CC(=O)c1ccc(NC(=O)C2CC(c3ccc(F)cc3)=NO2)cc1 (stereo unspecified) | inconclusive: 2.35% | 
16 | COc1cccc(Nc2ncc3nc(CCc4ccccc4)c(=O)n(Cc4cccs4)c3n2)c1 |  | inconclusive: 3.98 µM [falling, full curve]
17 | CC(CCc1ccco1)NC(=O)Nc1cccc(F)c1 (stereo unspecified) |  | inconclusive: 25.1 µM [falling, single point]
18 | CS(=O)(=O)N1CCC(C(=O)NCC2CCCO2)CC1 (stereo unspecified) | inactive | 
19 | CCn1c(=O)n(CCOC)c(=O)c2c3c(sc21)CCCC3 |  | inconclusive: 10 µM [rising, single point]
20 | Nc1c(C(=O)NC2CCCCC2)c2nc3ccccc3nc2n1/N=C/c1ccco1 |  | inconclusive: 6.31 µM [rising, partial curve]
21 | O=C(c1ccc2c(c1)[nH]c(=S)n1c3ccccc3nc21)N1CCN(c2ncccn2)CC1 | inconclusive: 25.9% | 
22 | O=C(CSC1=NCCS1)Nc1nc2c(s1)CCCC2 | inconclusive: -13.6% | 
23 | COc1cccc(-c2noc(C3CCCN(C(=O)Cc4ccccc4)C3)n2)c1 (stereo unspecified) | inactive | 
24 | CN(C)C(=O)Cn1c(SCC(=O)NC2CCCCC2)nc2ccccc21 | inactive | 
25 | CN1CCN(c2ncc3nc(-c4cccs4)c(=O)n(Cc4ccc(F)cc4)c3n2)CC1 |  | inconclusive: 0.316 µM [rising, full curve]
26 | CN1CCN2c3ccccc3Cc3ccccc3[C@@H]2C1 |  | inconclusive: 5.01 µM [falling, full curve]

Row | SMILES | activity change, negative = inhibition | Potency
27 | C=C(C)c1cccc(C(C)(C)NC(=O)N2CCN(C)CC2)c1 | inconclusive: -22.1% | 
28 | O=C(NCCn1ccc2ccccc21)c1ccc(S(=O)(=O)N2CCOCC2)cc1 |  | inconclusive: 7.94 µM [rising, partial curve]
29 | CCOC(=O)c1c(NC(=O)CSc2nnc(-c3ccccc3C)n2C)sc(C(C)=O)c1C |  | inconclusive: 0.631 µM [falling, single point]
30 | CCOc1ccc(NC(=O)CN(C)S(=O)(=O)c2cccs2)cc1 | inconclusive: 7.87% | 
31 | CN(Cc1ccccc1)c1nc2c(c(=O)[nH]c(=O)n2C)n1Cc1ccccc1Cl |  | inconclusive: 3.98 µM [rising, partial curve]
32 | Cc1ccc(CS(=O)(=O)CCC(=O)NCCCN2CCCC2)cc1 | inactive | 
33 | COc1ccc(C(=O)CSc2n[nH]c(-c3ccco3)n2)cc1 |  | inconclusive: 3.98 µM [rising, single point]
34 | CCS(=O)(=O)N1CCC(C(=O)NCCCN2CCCCCC2)CC1 | inconclusive: -4.43% | 
35 | Cc1nn(-c2ccccc2)c2c1/C(=N/O)CC(C)(C)C2 |  | inconclusive: 12.6 µM [rising, partial curve]
36 | O=c1c(-c2ccc(F)cc2)nc2cnc(Oc3ccccc3)nc2n1C[C@H]1CCCO1 | inconclusive: 25.1% | 
37 | C=C(C)Cn1c(-c2ccccc2)nc2ccccc21 | inactive: 1.55% [at 7.6 µM] | 
38 | CC1CC(C)CN(c2nc3c(c(=O)[nH]c(=O)n3C)n2CCCSc2nc3ccccc3s2)C1 (stereo unspecified) | inconclusive: 7.35% | 
39 | CCOC(=O)c1cnc2nc(Cc3ccccc3)[nH]n2c1=O | inconclusive: 5.29% | 
40 | O=C1c2ccccc2C(=O)N1c1ccccc1S(=O)C(F)(F)F (stereo unspecified) |  | inconclusive: 0.251 µM [rising, full curve]
41 | COc1cc(OC)c(CN2CCN(c3ccc(F)cc3)CC2)cc1Br | inconclusive: 12.2% [at 7.6 µM] | 
42 | Cc1ccc(C(=O)O)cc1S(=O)(=O)N1CCC(C(=O)O)CC1 | inactive | 
43 | COc1ccc(CC(=O)NCc2ccccc2)cc1S(=O)(=O)N1CCOCC1 |  | inconclusive: 5.01 µM [falling, single point]
44 | CCCc1c(C)c2ccc(OCC(C)=O)cc2oc1=O |  | inconclusive: 10 µM [rising, partial curve]
45 | CC1=C(C(=O)OCCOC(C)C)C(c2cc3c(cc2Br)OCO3)C2=C(CCCC2=O)N1 (stereo unspecified) | inconclusive: -27.4% | 
46 | c1ccc(-c2ccc(N3CC4(CCNCC4)C3)cc2)cc1 | inconclusive: 2.67% | 
47 | Cn1nnnc1SCC(=O)Nc1ccccc1C(=O)NCc1ccccc1 | inconclusive: -5.94% [at 7.6 µM] | 
48 | COc1ccc(-c2ccc(=O)[nH]n2)cc1 | inconclusive: 12.3% | 
49 | CN(C)Cc1ccccc1-c1cc(N(C)Cc2ccco2)ncn1 | inactive | 
50 | CCCOC(=O)c1ccc(NC(=O)CCC(=O)OCC)cc1 | inconclusive: -16% [at 7.6 µM] | 
51 | O=c1cnc2ccccc2n1CC1CCCCC1 | inconclusive: -0.845% | 
